According to the RNAGym collection of RNA variant scans (doi:10.7554/elife.90254):
The source gives no read counts; variants with many changes may rest on few reads.

B1: LINE1-mini (parent)
chain: GGCAGAGCUCAACACAGCGUGGCAAAGUGGCUGUGGCUAGACUGCC

Variants of: B1
Assay: self-cleavage, relative activity (ratio to wild type); higher = more cleavage; in vitro, sequencing; the parent is a self-cleaving ribozyme

Variant	self-cleavage
C8A A26G G29C G30U A41C	0.02
C8A A26G U43G	0.03
C8A A26U G30U	0.35
C8A A26U U28C	0.17
C8A A39G G40U C46A	0.05
C8A A41C G44U C46U	0.18
C8A A41G U43C	0.04
C8A C10A A11C	0.06
C8A C10A A11G A14G	0.01
C8A C10A A12C G33A U34A G36U	0
C8A C10A A24C	0.08
C8A C10A C13U A25C A39U U43C	0.03
C8A C10A C15U G21U G44U	0
C8A C10A C18U C31G	0.03
C8A C10A C23A	0.02
C8A C10A C31U U32G G36A	0.02
C8A C10A G27C A39U	0.02
C8A C10A G33U A41C	0.02
C8A C10A U38C A39C	0.02
C8A C10G A11U G30C	0.02
C8A C10G A26U	0.02
C8A C10G C37G	0.01
C8A C10G C45A	0.02
C8A C10G G17A U38C G40C	0.01

Variant	self-cleavage
C8A C10G G21C U28C	0.01
C8A C10G G22U G30C	0.01
C8A C10G G29C A39G G44A	0.02
C8A C10G G29C C46U	0
C8A C10G U43A C46G	0.05
C8A C10U A11C C13A G35A C37A C42U	0.01
C8A C10U A16U G22U	0.14
C8A C10U C13G	0.12
C8A C10U G35U	0.06
C8A C13A A16U C23U A26U G35U	0.06
C8A C13A C15A G19U G27C A41G	0.02
C8A C13A G21A	0.95
C8A C13A U20A A25G U38A	0.06
C8A C13A U38G C42A	0.07
C8A C13G A14U U34A G35A G44A C46U	0.22
C8A C13G A24C C31A	0.2
C8A C13G A41G	1.39
C8A C13U C31U G44U	0.15
C8A C13U G21A G35U	1.16
C8A C13U G22U	0.45
C8A C13U G35C	0.26
C8A C15A G19C G40C	0.15
C8A C15A U32C G35A	0.05
C8A C15G A41G C46G	0.23

Variant	self-cleavage
C8A C15G C31G	0.65
C8A C15G U32A	0.04
C8A C15U A24U	0.43
C8A C15U C37U U43C G44A	0.18
C8A C15U C45A	0.21
C8A C15U G17A G35A	0.17
C8A C15U G30C	0.05
C8A C15U G35U	1.07
C8A C15U G40A	0.09
C8A C15U U28A	0.1
C8A C18A G22U A26G G29C	0.09
C8A C18G C31G	0.09
C8A C18G G19C U20A	0.1
C8A C18G G33A G35A C42A	0.05
C8A C18U C45A	0.07
C8A C18U G27C	0.07
C8A C18U U28C C31A	0.09
C8A C23A A25U G30C	0.22
C8A C23A A26C	0.16
C8A C23A G36C	0.14
C8A C23A U28C G33A A41U	0.27
C8A C23A U32A	0.09
C8A C31A A41C	0.1
C8A C31U U32A A41G	0.17

Variant	self-cleavage
C8A G17A A24C C45G	0.22
C8A G17A A26C C46U	0.11
C8A G17A C23U U32G	1.06
C8A G17A C31U U32A	0.07
C8A G17A G30U U43C	0.39
C8A G17A G33U G35C C42A	0.28
C8A G17C A26U G27A	0.08
C8A G17C C18A G19A A24U A26U G29A C31A	0
C8A G17C C42A C45A	0.09
C8A G17C G29C G35A	0.13
C8A G17U C37U	0.02
C8A G17U C45G	0.08
C8A G17U G21A G40A	0.3
C8A G19A C46G	0.07
C8A G19C G29C	0.06
C8A G19C G30C	0.26
C8A G19U A39C	0.04
C8A G19U C31A G36A G44U	0.02
C8A G21A C23U	0.12
C8A G21A C37G	0.7
C8A G21A G22U C23G G30U C31G	0.01
C8A G21A G27C	0.26
C8A G21A U38A A39G	0.78
C8A G21C C37U U38A C45U	0.23

Variant	self-cleavage
C8A G21U A26G	0.38
C8A G21U C37G	0.07
C8A G21U G27C G33C U34A G40A	0.01
C8A G21U G40A	0.07
C8A G21U G40U C42A	0.59
C8A G21U U34C	0.13
C8A G22A G33A U34C G36U A41C	0.01
C8A G22A G35U C46G	0.32
C8A G22C A41C	0.11
C8A G22C G33A	0.15
C8A G22U A24U A41C	0.11
C8A G22U A39G	0.04
C8A G27A C31A U32A G44A	0.33
C8A G27A G30C C31A U43A	0.18
C8A G27A U32C	0.19
C8A G27C G29A C37U	0.11
C8A G27U U28A	0.7
C8A G29U G35U	0.02
C8A G30A A41C	0.12
C8A G30A C37G	0.1
C8A G30A G40A C42A U43G	0.26
C8A G30C A39U	0.57
C8A G30C C31G U32G	0.07
C8A G33U A39G	0.1

Variant	self-cleavage
C8A G33U G35U G44A	0.34
C8A G35A C42U	0.08
C8A G36A U43A	0.47
C8A G36C U38C	0.32
C8A G36U U43G	0.03
C8A G40C A41U	0.33
C8A G44C C46G	0.58
C8A U9A A12G A16U G22C	0.01
C8A U9A A41C	0.07
C8A U9A C23A U38G	0.03
C8A U9A G21C A24U U28A C45G	0.06
C8A U9C A16C G17C G30C	0.07
C8A U9C A26C G29C G36U	0.03
C8A U9C C23U	0.04
C8A U9C G27U	0.07
C8A U9C G44U	0.16
C8A U9G A12C G21U C46U	0.01
C8A U9G G29U	0
C8A U9G G36U	0.11
C8A U20A G30U	0.1
C8A U20A G33U U34A U38A	0.05
C8A U20C G36A A41G C42A	0.06
C8A U20G A26U C42G	0.15
C8A U20G C31A U32A A41C	0.08

Variant	self-cleavage
C8A U20G G29U C37U C45G	0.11
C8A U20G G33C A41C	0.04
C8A U28A G35C C37U	0.05
C8A U28A U38A A39G	0.08
C8A U34G G35U	0.08
C8A U38C G40U	0.42
C8A U43G C45U	0.19
C8G A11C C15G	0.02
C8G A11C G22A	0.01
C8G A11C G35U A39C	0.02
C8G A11G U28G	0
C8G A11U A14U G19U A39C	0
C8G A11U A16C G19U A41U	0.01
C8G A11U A16G G19U G27C A39U	0
C8G A11U A24C	0.03
C8G A11U C13G G17A	0.01
C8G A11U C15A C23G	0
C8G A11U C23A U32A	0.01
C8G A12C U20A U43G	0.01
C8G A12G C13A C15U C18G G19A A25G C42A	0.01
C8G A12G C31A	0.21
C8G A12U A16U C18U G27C U28A C42G	0.02
C8G A12U A26G C46U	0.03
